Not every entry of the source has a single result; some have several. This is not the full list of results. An entry can have further records. The records of an entry read as repeated measurements on other runs, samples or individuals; one of them may be the mean. Counts like (3×) count equal records among those shown.
These binders were tested against HRgpA-6H (Porphyromonas gingivalis) (UniProt P28784) (assay: ELISA, FASEBA Fab on coated HRgpA-6H).

Binder | OD450nm | Ratio OD(Variant)/OD(WT)
KB001 mouse Fab VL S57K (Fab, V domains shown) VH: EVQLKQSGPGLVAPSQSLSITCTVSGFSLSIYSVHWVRQPPGKGLEWLGMIWGGGSSDYNSALKSRLSISKDNSKSQVFLKMNSLQTDDTAMYYCARNGNFYAMDYWGQGTSVTVSS VL: QIVLTQSPAIMSASLGERVTMTCTASSSVSSSFLHWYQQKPGSSPQLWIYSTSNLAKGVPARFSGSGSGTSYSLTISSMEAEDAATYYCHQYHHSPYIYTFGGGTKLEIK | 0.841, 0.84, 0.864, 0.846, 0.879 [lines of one column] | 1.03 (2×), 1.06, 1.04, 1.08 [lines of one column]
KB001 mouse Fab VL S28F (Fab, V domains shown) VH: EVQLKQSGPGLVAPSQSLSITCTVSGFSLSIYSVHWVRQPPGKGLEWLGMIWGGGSSDYNSALKSRLSISKDNSKSQVFLKMNSLQTDDTAMYYCARNGNFYAMDYWGQGTSVTVSS VL: QIVLTQSPAIMSASLGERVTMTCTASSFVSSSFLHWYQQKPGSSPQLWIYSTSNLASGVPARFSGSGSGTSYSLTISSMEAEDAATYYCHQYHHSPYIYTFGGGTKLEIK | 0.674, 0.721, 0.74, 0.678 [lines of one column] | 0.898, 0.961, 0.986, 0.903 [lines of one column]
KB001 mouse Fab VL S31L (Fab, V domains shown) VH: EVQLKQSGPGLVAPSQSLSITCTVSGFSLSIYSVHWVRQPPGKGLEWLGMIWGGGSSDYNSALKSRLSISKDNSKSQVFLKMNSLQTDDTAMYYCARNGNFYAMDYWGQGTSVTVSS VL: QIVLTQSPAIMSASLGERVTMTCTASSSVSLSFLHWYQQKPGSSPQLWIYSTSNLASGVPARFSGSGSGTSYSLTISSMEAEDAATYYCHQYHHSPYIYTFGGGTKLEIK | 0.742, 0.739, 0.745, 0.691 [lines of one column] | 0.878, 0.875, 0.882, 0.818 [lines of one column]

What follows are binders tested against HRgpA-6H (Porphyromonas gingivalis) (UniProt P28784) (assay: ELISA, Fab FASEBA supernatant on coated HRgpA-6H).

Binder | OD450nm | Ratio OD(Variant)/OD(WT)
parental mouse (KB001) Fab FASEBA, VL variant A56H (Fab, V domains shown) VH: EVQLKQSGPGLVAPSQSLSITCTVSGFSLSIYSVHWVRQPPGKGLEWLGMIWGGGSSDYNSALKSRLSISKDNSKSQVFLKMNSLQTDDTAMYYCARNGNFYAMDYWGQGTSVTVSS VL: QIVLTQSPAIMSASLGERVTMTCTASSSVSSSFLHWYQQKPGSSPQLWIYSTSNLHSGVPARFSGSGSGTSYSLTISSMEAEDAATYYCHQYHHSPYIYTFGGGTKLEIK | 0.704 OD450nm, 0.699 OD450nm, 0.759 OD450nm, 0.739 OD450nm [lines of one column] | 0.863, 0.857, 0.931, 0.906 ratio to WT [lines of one column]
parental mouse (KB001) Fab FASEBA, VL variant A56Y (Fab, V domains shown) VH: EVQLKQSGPGLVAPSQSLSITCTVSGFSLSIYSVHWVRQPPGKGLEWLGMIWGGGSSDYNSALKSRLSISKDNSKSQVFLKMNSLQTDDTAMYYCARNGNFYAMDYWGQGTSVTVSS VL: QIVLTQSPAIMSASLGERVTMTCTASSSVSSSFLHWYQQKPGSSPQLWIYSTSNLYSGVPARFSGSGSGTSYSLTISSMEAEDAATYYCHQYHHSPYIYTFGGGTKLEIK | 0.673 OD450nm, 0.712 OD450nm, 0.726 OD450nm, 0.696 OD450nm, 0.698 OD450nm [lines of one column] | 0.825, 0.873, 0.89, 0.853, 0.856 ratio to WT [lines of one column]
parental mouse (KB001) Fab FASEBA, VL variant S95K (Fab, V domains shown) VH: EVQLKQSGPGLVAPSQSLSITCTVSGFSLSIYSVHWVRQPPGKGLEWLGMIWGGGSSDYNSALKSRLSISKDNSKSQVFLKMNSLQTDDTAMYYCARNGNFYAMDYWGQGTSVTVSS VL: QIVLTQSPAIMSASLGERVTMTCTASSSVSSSFLHWYQQKPGSSPQLWIYSTSNLASGVPARFSGSGSGTSYSLTISSMEAEDAATYYCHQYHHKPYIYTFGGGTKLEIK | 0.841 OD450nm, 0.824 OD450nm, 0.813 OD450nm, 0.79 OD450nm [lines of one column] | 0.916, 0.897, 0.885, 0.86 ratio to WT [lines of one column]
parental mouse (KB001) Fab FASEBA, VL variant T100F (Fab, V domains shown) VH: EVQLKQSGPGLVAPSQSLSITCTVSGFSLSIYSVHWVRQPPGKGLEWLGMIWGGGSSDYNSALKSRLSISKDNSKSQVFLKMNSLQTDDTAMYYCARNGNFYAMDYWGQGTSVTVSS VL: QIVLTQSPAIMSASLGERVTMTCTASSSVSSSFLHWYQQKPGSSPQLWIYSTSNLASGVPARFSGSGSGTSYSLTISSMEAEDAATYYCHQYHHSPYIYFFGGGTKLEIK | 0.494 OD450nm, 0.492 OD450nm, 0.48 OD450nm, 0.517 OD450nm [lines of one column] | 0.944, 0.94, 0.917, 0.988 ratio to WT [lines of one column]

Each binder was assayed against HRgpA-6H (Porphyromonas gingivalis) (UniProt P28784) (assay: ELISA, Fab FASEBA supernatant on coated HRgpA-6H (0.0625 ug/ml)).

Binder | OD450nm | Ratio OD(Variant)/OD(WT)
KB001 parental mouse Fab VH variant N100D (Fab, V domains shown) VH: EVQLKQSGPGLVAPSQSLSITCTVSGFSLSIYSVHWVRQPPGKGLEWLGMIWGGGSSDYNSALKSRLSISKDNSKSQVFLKMNSLQTDDTAMYYCARNGDFYAMDYWGQGTSVTVSS VL: QIVLTQSPAIMSASLGERVTMTCTASSSVSSSFLHWYQQKPGSSPQLWIYSTSNLASGVPARFSGSGSGTSYSLTISSMEAEDAATYYCHQYHHSPYIYTFGGGTKLEIK | 0.82, 0.784, 0.841, 0.842 [lines of one column] | 0.968, 0.926, 0.993, 0.994 [lines of one column]
KB001 parental mouse Fab VH variant F101Y (Fab, V domains shown) VH: EVQLKQSGPGLVAPSQSLSITCTVSGFSLSIYSVHWVRQPPGKGLEWLGMIWGGGSSDYNSALKSRLSISKDNSKSQVFLKMNSLQTDDTAMYYCARNGNYYAMDYWGQGTSVTVSS VL: QIVLTQSPAIMSASLGERVTMTCTASSSVSSSFLHWYQQKPGSSPQLWIYSTSNLASGVPARFSGSGSGTSYSLTISSMEAEDAATYYCHQYHHSPYIYTFGGGTKLEIK | 0.69, 0.718, 0.738, 0.713, 0.732 [lines of one column] | 0.815, 0.848, 0.871, 0.842, 0.864 [lines of one column]
KB001 parental mouse Fab VH variant Y106E (Fab, V domains shown) VH: EVQLKQSGPGLVAPSQSLSITCTVSGFSLSIYSVHWVRQPPGKGLEWLGMIWGGGSSDYNSALKSRLSISKDNSKSQVFLKMNSLQTDDTAMYYCARNGNFYAMDEWGQGTSVTVSS VL: QIVLTQSPAIMSASLGERVTMTCTASSSVSSSFLHWYQQKPGSSPQLWIYSTSNLASGVPARFSGSGSGTSYSLTISSMEAEDAATYYCHQYHHSPYIYTFGGGTKLEIK | 0.687, 0.705, 0.721, 0.686 [lines of one column] | 0.893, 0.917, 0.938, 0.892 [lines of one column]

From patent US20230365662A1
